# Test results: publication PMC12820563, “FoxP3 forms a head-to-head dimer in vivo and stabilizes its multimerization on adjacent microsatellites”
# Some of the results follow.
# Target: T1, MBP-FoxP1dN (Mus musculus, UniProt P58462 326-579)
# T1 sequence: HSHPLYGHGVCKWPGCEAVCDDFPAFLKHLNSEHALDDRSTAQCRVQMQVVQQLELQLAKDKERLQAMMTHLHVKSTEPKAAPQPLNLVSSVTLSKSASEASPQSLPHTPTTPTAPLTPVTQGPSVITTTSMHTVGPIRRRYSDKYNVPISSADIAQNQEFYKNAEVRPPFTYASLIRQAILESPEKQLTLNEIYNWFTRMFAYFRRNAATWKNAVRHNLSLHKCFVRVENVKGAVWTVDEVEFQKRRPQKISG
# Experiment: PD-seq (MBP pull-down with sequencing); 20 mM Tris-HCl pH 7.5, 100 mM NaCl, 1.5 mM MgCl2, 0.4 uM protein, 0.1 uM dsDNA library, 30 min, room temperature, amylose pull-down; high values mean tight binding
# Settings: protein: recombinant; tags: His6-MBP; chain copies: 2; dsDNA, one strand shown
# Outline: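 In Tris pH 7.5 buffer with NaCl and MgCl2, 0.4 µM His6-MBP-tagged mouse FoxP3 or FoxP1 fragment lacking the N-terminus, from E. coli, met 0.1 µM Klenow-filled double-stranded degenerate DNA library for 30 min at room temperature. Three washes on amylose resin followed capture of the complexes, then proteinase K release of DNA, PCR barcoding and Illumina sequencing. Binding is taken as pooled-replicate reads-per-million enrichment of pull-down relative to input.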
row,Sequence,binding signal
1,GATGATTGTTCTCCCAGCTGATGAATTCTCAATCTCGAGTAAACAAATTTTCCTAATCTTTCTGTTCAAGCGCCATCTAC,0.717 RPM ratio (pull-down/input)
2,GATGATTGTTCTCCCAGCTGATGAATTTCCTGTATCGAGTAAACAAATTTTCCTAATCTTTCTGTTCAAGCGCCATCTAC,0.941 RPM ratio (pull-down/input)
3,GATGATTGTTCTCCCAGCTGATGAATTAGCGGCTTCGAGTAAACAAATTTTCCTAATCTTTCTGTTCAAGCGCCATCTAC,0.855 RPM ratio (pull-down/input)
4,GATGATTGTTCTCCCAGCTGATGAATTTGCTGCCTCGAGTAAACAAATTTTCCTAATCTTTCTGTTCAAGCGCCATCTAC,0.908 RPM ratio (pull-down/input)
5,GATGATTGTTCTCCCAGCTGATGAATTGCGCCGTTCGAGTAAACAAATTTTCCTAATCTTTCTGTTCAAGCGCCATCTAC,1.08 RPM ratio (pull-down/input)
6,GATGATTGTTCTCCCAGCTGATGAATTCACTGCATCGAGTAAACAAATTTTCCTAATCTTTCTGTTCAAGCGCCATCTAC,1.12 RPM ratio (pull-down/input)
7,GATGATTGTTCTCCCAGCTGATGAATTGCATTACTCGAGTAAACAAATTTTCCTAATCTTTCTGTTCAAGCGCCATCTAC,1.26 RPM ratio (pull-down/input)
8,GATGATTGTTCTCCCAGCTGATGAATTTAACCCTTCGAGTAAACAAATTTTCCTAATCTTTCTGTTCAAGCGCCATCTAC,0.882 RPM ratio (pull-down/input)
9,GATGATTGTTCTCCCAGCTGATGAATTGTAGAAATCGAGTAAACAAATTTTCCTAATCTTTCTGTTCAAGCGCCATCTAC,1.09 RPM ratio (pull-down/input)
10,GATGATTGTTCTCCCAGCTGATGAATTACTGCGCTCGAGTAAACAAATTTTCCTAATCTTTCTGTTCAAGCGCCATCTAC,0.898 RPM ratio (pull-down/input)
11,GATGATTGTTCTCCCAGCTGATGAATTTGCACACTCGAGTAAACAAATTTTCCTAATCTTTCTGTTCAAGCGCCATCTAC,0.974 RPM ratio (pull-down/input)
12,GATGATTGTTCTCCCAGCTGATGAATTGTTATTATCGAGTAAACAAATTTTCCTAATCTTTCTGTTCAAGCGCCATCTAC,3.14 RPM ratio (pull-down/input)
13,GATGATTGTTCTCCCAGCTGATGAATTGTAGACCTCGAGTAAACAAATTTTCCTAATCTTTCTGTTCAAGCGCCATCTAC,0.829 RPM ratio (pull-down/input)
14,GATGATTGTTCTCCCAGCTGATGAATTACATGGATCGAGTAAACAAATTTTCCTAATCTTTCTGTTCAAGCGCCATCTAC,1 RPM ratio (pull-down/input)
15,GATGATTGTTCTCCCAGCTGATGAATTATATCCTTCGAGTAAACAAATTTTCCTAATCTTTCTGTTCAAGCGCCATCTAC,0.96 RPM ratio (pull-down/input)
16,GATGATTGTTCTCCCAGCTGATGAATTCATAAGGTCGAGTAAACAAATTTTCCTAATCTTTCTGTTCAAGCGCCATCTAC,0.78 RPM ratio (pull-down/input)
17,GATGATTGTTCTCCCAGCTGATGAATTTTTCCCCTCGAGTAAACAAATTTTCCTAATCTTTCTGTTCAAGCGCCATCTAC,0.9 RPM ratio (pull-down/input)
18,GATGATTGTTCTCCCAGCTGATGAATTACTCTAGTCGAGTAAACAAATTTTCCTAATCTTTCTGTTCAAGCGCCATCTAC,1 RPM ratio (pull-down/input)
19,GATGATTGTTCTCCCAGCTGATGAATTATTTTACTCGAGTAAACAAATTTTCCTAATCTTTCTGTTCAAGCGCCATCTAC,1.2 RPM ratio (pull-down/input)
20,GATGATTGTTCTCCCAGCTGATGAATTTCACGTCTCGAGTAAACAAATTTTCCTAATCTTTCTGTTCAAGCGCCATCTAC,0.828 RPM ratio (pull-down/input)
21,GATGATTGTTCTCCCAGCTGATGAATTAGAATCTTCGAGTAAACAAATTTTCCTAATCTTTCTGTTCAAGCGCCATCTAC,0.886 RPM ratio (pull-down/input)

row,Sequence,binding signal
1,GATGATTGTTCTCCCAGCTGATGAATTGCTTTTGTCGAGTAAACAAATTTTCCTAATCTTTCTGTTCAAGCGCCATCTAC,1.27 RPM ratio (pull-down/input)
2,GATGATTGTTCTCCCAGCTGATGAATTACGACCATCGAGTAAACAAATTTTCCTAATCTTTCTGTTCAAGCGCCATCTAC,1.04 RPM ratio (pull-down/input)
3,GATGATTGTTCTCCCAGCTGATGAATTCATCCTGTCGAGTAAACAAATTTTCCTAATCTTTCTGTTCAAGCGCCATCTAC,0.829 RPM ratio (pull-down/input)
4,GATGATTGTTCTCCCAGCTGATGAATTCTTAACGTCGAGTAAACAAATTTTCCTAATCTTTCTGTTCAAGCGCCATCTAC,0.997 RPM ratio (pull-down/input)
5,GATGATTGTTCTCCCAGCTGATGAATTGTGTGGATCGAGTAAACAAATTTTCCTAATCTTTCTGTTCAAGCGCCATCTAC,1.08 RPM ratio (pull-down/input)
6,GATGATTGTTCTCCCAGCTGATGAATTCATTCTATCGAGTAAACAAATTTTCCTAATCTTTCTGTTCAAGCGCCATCTAC,0.85 RPM ratio (pull-down/input)
7,GATGATTGTTCTCCCAGCTGATGAATTTAAAGATTCGAGTAAACAAATTTTCCTAATCTTTCTGTTCAAGCGCCATCTAC,0.872 RPM ratio (pull-down/input)
8,GATGATTGTTCTCCCAGCTGATGAATTTTTGTTATCGAGTAAACAAATTTTCCTAATCTTTCTGTTCAAGCGCCATCTAC,2.35 RPM ratio (pull-down/input)
9,GATGATTGTTCTCCCAGCTGATGAATTACTAAGTTCGAGTAAACAAATTTTCCTAATCTTTCTGTTCAAGCGCCATCTAC,1.13 RPM ratio (pull-down/input)
10,GATGATTGTTCTCCCAGCTGATGAATTACCAGGCTCGAGTAAACAAATTTTCCTAATCTTTCTGTTCAAGCGCCATCTAC,0.839 RPM ratio (pull-down/input)
11,GATGATTGTTCTCCCAGCTGATGAATTATCGGCTTCGAGTAAACAAATTTTCCTAATCTTTCTGTTCAAGCGCCATCTAC,0.859 RPM ratio (pull-down/input)
12,GATGATTGTTCTCCCAGCTGATGAATTGCCTTGCTCGAGTAAACAAATTTTCCTAATCTTTCTGTTCAAGCGCCATCTAC,0.856 RPM ratio (pull-down/input)
13,GATGATTGTTCTCCCAGCTGATGAATTCTAACTCTCGAGTAAACAAATTTTCCTAATCTTTCTGTTCAAGCGCCATCTAC,0.838 RPM ratio (pull-down/input)
14,GATGATTGTTCTCCCAGCTGATGAATTGGACGAATCGAGTAAACAAATTTTCCTAATCTTTCTGTTCAAGCGCCATCTAC,0.886 RPM ratio (pull-down/input)
15,GATGATTGTTCTCCCAGCTGATGAATTGAGCAATTCGAGTAAACAAATTTTCCTAATCTTTCTGTTCAAGCGCCATCTAC,0.947 RPM ratio (pull-down/input)
16,GATGATTGTTCTCCCAGCTGATGAATTAAAGATATCGAGTAAACAAATTTTCCTAATCTTTCTGTTCAAGCGCCATCTAC,1.01 RPM ratio (pull-down/input)
17,GATGATTGTTCTCCCAGCTGATGAATTTGTGTTGTCGAGTAAACAAATTTTCCTAATCTTTCTGTTCAAGCGCCATCTAC,2.64 RPM ratio (pull-down/input)
18,GATGATTGTTCTCCCAGCTGATGAATTACGATATTCGAGTAAACAAATTTTCCTAATCTTTCTGTTCAAGCGCCATCTAC,1.07 RPM ratio (pull-down/input)
19,GATGATTGTTCTCCCAGCTGATGAATTCTCAGACTCGAGTAAACAAATTTTCCTAATCTTTCTGTTCAAGCGCCATCTAC,0.778 RPM ratio (pull-down/input)
20,GATGATTGTTCTCCCAGCTGATGAATTAAATCACTCGAGTAAACAAATTTTCCTAATCTTTCTGTTCAAGCGCCATCTAC,1.09 RPM ratio (pull-down/input)
21,GATGATTGTTCTCCCAGCTGATGAATTAGAGAGGTCGAGTAAACAAATTTTCCTAATCTTTCTGTTCAAGCGCCATCTAC,0.771 RPM ratio (pull-down/input)

row,Sequence,binding signal
1,GATGATTGTTCTCCCAGCTGATGAATTCCTAGGCTCGAGTAAACAAATTTTCCTAATCTTTCTGTTCAAGCGCCATCTAC,0.749 RPM ratio (pull-down/input)
2,GATGATTGTTCTCCCAGCTGATGAATTAGGCGATTCGAGTAAACAAATTTTCCTAATCTTTCTGTTCAAGCGCCATCTAC,0.863 RPM ratio (pull-down/input)
3,GATGATTGTTCTCCCAGCTGATGAATTGTGAACCTCGAGTAAACAAATTTTCCTAATCTTTCTGTTCAAGCGCCATCTAC,0.997 RPM ratio (pull-down/input)
4,GATGATTGTTCTCCCAGCTGATGAATTGCAGAAATCGAGTAAACAAATTTTCCTAATCTTTCTGTTCAAGCGCCATCTAC,1.4 RPM ratio (pull-down/input)
5,GATGATTGTTCTCCCAGCTGATGAATTCTTGTGGTCGAGTAAACAAATTTTCCTAATCTTTCTGTTCAAGCGCCATCTAC,1.07 RPM ratio (pull-down/input)
6,GATGATTGTTCTCCCAGCTGATGAATTCTGCATCTCGAGTAAACAAATTTTCCTAATCTTTCTGTTCAAGCGCCATCTAC,1.4 RPM ratio (pull-down/input)
7,GATGATTGTTCTCCCAGCTGATGAATTGATATGCTCGAGTAAACAAATTTTCCTAATCTTTCTGTTCAAGCGCCATCTAC,1.04 RPM ratio (pull-down/input)
8,GATGATTGTTCTCCCAGCTGATGAATTGGTGTCATCGAGTAAACAAATTTTCCTAATCTTTCTGTTCAAGCGCCATCTAC,1.24 RPM ratio (pull-down/input)
9,GATGATTGTTCTCCCAGCTGATGAATTCGCTCATTCGAGTAAACAAATTTTCCTAATCTTTCTGTTCAAGCGCCATCTAC,0.931 RPM ratio (pull-down/input)
10,GATGATTGTTCTCCCAGCTGATGAATTTGCCAGATCGAGTAAACAAATTTTCCTAATCTTTCTGTTCAAGCGCCATCTAC,0.84 RPM ratio (pull-down/input)
11,GATGATTGTTCTCCCAGCTGATGAATTTACGACTTCGAGTAAACAAATTTTCCTAATCTTTCTGTTCAAGCGCCATCTAC,1.3 RPM ratio (pull-down/input)
12,GATGATTGTTCTCCCAGCTGATGAATTGGCGAAATCGAGTAAACAAATTTTCCTAATCTTTCTGTTCAAGCGCCATCTAC,0.992 RPM ratio (pull-down/input)
13,GATGATTGTTCTCCCAGCTGATGAATTCTGCTCATCGAGTAAACAAATTTTCCTAATCTTTCTGTTCAAGCGCCATCTAC,0.862 RPM ratio (pull-down/input)
14,GATGATTGTTCTCCCAGCTGATGAATTTCTGCGCTCGAGTAAACAAATTTTCCTAATCTTTCTGTTCAAGCGCCATCTAC,0.816 RPM ratio (pull-down/input)
15,GATGATTGTTCTCCCAGCTGATGAATTATCCAATTCGAGTAAACAAATTTTCCTAATCTTTCTGTTCAAGCGCCATCTAC,0.951 RPM ratio (pull-down/input)
16,GATGATTGTTCTCCCAGCTGATGAATTCCATTAATCGAGTAAACAAATTTTCCTAATCTTTCTGTTCAAGCGCCATCTAC,0.897 RPM ratio (pull-down/input)
17,GATGATTGTTCTCCCAGCTGATGAATTACTTCCTTCGAGTAAACAAATTTTCCTAATCTTTCTGTTCAAGCGCCATCTAC,0.975 RPM ratio (pull-down/input)
18,GATGATTGTTCTCCCAGCTGATGAATTGATGGTGTCGAGTAAACAAATTTTCCTAATCTTTCTGTTCAAGCGCCATCTAC,1.03 RPM ratio (pull-down/input)
19,GATGATTGTTCTCCCAGCTGATGAATTGGCGCCCTCGAGTAAACAAATTTTCCTAATCTTTCTGTTCAAGCGCCATCTAC,0.837 RPM ratio (pull-down/input)
20,GATGATTGTTCTCCCAGCTGATGAATTATTGCCTTCGAGTAAACAAATTTTCCTAATCTTTCTGTTCAAGCGCCATCTAC,1.25 RPM ratio (pull-down/input)
21,GATGATTGTTCTCCCAGCTGATGAATTGATACGATCGAGTAAACAAATTTTCCTAATCTTTCTGTTCAAGCGCCATCTAC,1.13 RPM ratio (pull-down/input)
